This is an account of results in PubChem BioAssay AID1745853 (National Center for Advancing Translational Sciences (NCATS), 2022).

What all share (experiment): Primary Screen for Target Class Profiling of Small Molecule Inhibitors of Methyltransferases
The target in test [1] is Glycine N-methyltransferase (Homo sapiens) (UniProt Q14749). The conditions noted are these: purified enzyme, MTase-Glo SAH luminescence; measured here: GNMT inhibition; at 40 µM; stronger effect = lower value. The method in brief: (§1)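 Each enzyme was assayed with SAM and its substrate. SAH formation detected by MTase-Glo luminescence; single-point 40 uM screen[…].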

The target of test [2] is Guanidinoacetate N-methyltransferase (Homo sapiens) (UniProt Q14353). The conditions noted are these: purified enzyme, MTase-Glo SAH luminescence; measured here: GAMT inhibition; at 40 µM; stronger effect = lower value. The method in brief:
as §1

The target of test [3] is Histamine N-methyltransferase (Homo sapiens) (UniProt P50135). As to conditions: purified enzyme, MTase-Glo SAH luminescence; measured here: HNMT inhibition; at 40 µM; stronger effect = lower value. In outline: as §1
In test [4] the target is Nicotinamide N-methyltransferase (Homo sapiens) (UniProt P40261). The conditions noted are these: purified enzyme, MTase-Glo SAH luminescence; measured here: NNMT inhibition; at 40 µM; stronger effect = lower value. In outline: as §1
The target of test [5] is Phenylethanolamine N-methyltransferase (Homo sapiens) (UniProt P11086). As to conditions: purified enzyme, MTase-Glo SAH luminescence; measured here: PNMT inhibition; at 40 µM; stronger effect = lower value. In outline:
as §1

Where “and” joins values, the source holds several entries; their conditions need not be identical. Equal values may be shown once. The list shows a part of the results. These are further read-outs of the screen, such as a control signal, another cell line or another target. No call is given for them.
% is set by controls: 0 for no effect and ±100 for the full control effect.

Consider `CC1(C)CC[C@]2(C(=O)O)CC[C@]3(C)C(=CCC4[C@@]5(C)C(=O)C[C@H](O)[C@@](C)(CO)C5CC[C@]43C)[C@@H]2C1` (stereo not given in full), for which the activity change, negative = inhibition in test [1] is -0.069%; in test [2], -1.49%; in test [3], -0.558%; in test [4], -14.7%; in test [5], 1.99%.

As to `CN1C[C@H](O)C[C@H]1c1nnc2n1CCN(C(=O)c1cccnc1)CC2`, the activity change, negative = inhibition is -2.11% in test [1]; 0.992% in test [2]; 1.92% in test [3]; 2.52% in test [4]; 13.3% in test [5].

Consider `CCc1cc(=O)n(CC(=O)N2CCN(c3ccccc3OC)CC2)c(-c2ccccc2)n1`, for which the activity change, negative = inhibition is -3.77% in test [1]; 1.51% in test [2]; -0.445% in test [3]; -3.83% in test [4]; -1.6% in test [5].

Regarding `FC(F)(F)c1nnc2c(Sc3ccccc3)nc3ccc(Cl)cc3n12`, the activity change, negative = inhibition in test [1] was 6.66%; in test [2], 1.43%; in test [3], 8.61%; in test [4], -12.6%; in test [5], -5.96%.

In the case of `COc1cc(S(=O)(=O)N2CCC(n3c(=O)[nH]c4ccccc43)CC2)ccc1-n1cnnn1`, the activity change, negative = inhibition was -8.73% in test [1]; 1.9% in test [2]; -11.1% in test [3]; 3.58% in test [4]; -11.1% in test [5].

`Cn1c(Cn2ccnc2)nnc1C1CCCN(CCOCc2ccccc2)C1` (stereo not given): the activity change, negative = inhibition in test [1] is -5.65%; in test [2] it was -9.91%; in test [3], -4.33%; in test [4], -10.9%; in test [5], -1.96%.

Turning to `COc1ccccc1CNC(=O)C1(C)Cn2nc(-c3ccccc3)cc2C(=O)N1Cc1ccc(C)o1` (stereo not given), the activity change, negative = inhibition in test [1] was 2.25%; in test [2] it was 9.35%; in test [3], 5.87%; in test [4] it was -3.96%; in test [5] it was 0.841%.

On to `COc1ccccc1-c1cc(Nc2cccc(CS(N)(=O)=O)c2)ncn1`, for which the activity change, negative = inhibition was 1.09% in test [1]; -1.99% in test [2]; -19.8% in test [3]; -29.7% in test [4]; -6.69% in test [5].

On to `CC1(COc2ccc3c(c2)ncn3-c2ccc3cccc(N4CCC(N)CC4)c3n2)COC1`, for which the activity change, negative = inhibition was -38.5% in test [1]; -45.2% in test [2]; -59.4% in test [3]; -49.8% in test [4]; -71% in test [5].

In the case of `Cc1ccc(NC(=O)Cn2nc3n(C)c(=O)c4ccc(C(=O)NC5CCCCC5)cc4n3c2=O)c(C)c1`, the activity change, negative = inhibition in test [1] is 5.9%; in test [2] it was 0%; in test [3], 10.6%; in test [4], 2.84%; in test [5], 5.86%.

With `Cc1ccc(C)c(Cn2nc3n(CCc4ccccc4)c(=O)c4ccccc4n3c2=O)c1`, the activity change, negative = inhibition worked out at 2.27% in test [1]; 2.26% in test [2]; 3.41% in test [3]; 7.32% in test [4]; 0.391% in test [5].

For `Cc1ccccc1NC(=O)Cn1nc2n(CC(C)C)c(=O)c3ccc(C(=O)NCC(C)C)cc3n2c1=O`, the activity change, negative = inhibition in test [1] was 4.28%; in test [2] it was 0%; in test [3], 3.65%; in test [4], 1.85%; in test [5] it was 3.64%.

With `COc1cc(/C=C/c2cn(-c3ccc(C(=O)O)cc3)nc2/C=C/c2ccc(O)c(OC)c2)ccc1O`, the activity change, negative = inhibition in test [1] is -79.3%; in test [2] it was -3.26%; in test [3], -15.2%; in test [4], -6.64% and -26.4%; in test [5], -2.15% and -5.18%.

Consider `COc1ccc(CC(=O)N2CC[C@@H](CC(=O)O)[C@@H](CCN(C)c3ccccc3)C2)cc1`, for which the activity change, negative = inhibition is -20.7% in test [1]; -7.32% in test [2]; -5.06% in test [3]; -10% in test [4]; -15.9% in test [5].

On to `CCOCCCNC(=O)c1ccc2c(=O)nc3c(-c4ccccc4)n[nH]n3c2c1`, for which the activity change, negative = inhibition in test [1] was -8.65%; in test [2], -3%; in test [3], -3.81%; in test [4], -0.641%; in test [5], -4.95%.

As for `CNC(=O)c1cc(C2CC2)nc2c1c(C1CCCN1C(=O)c1ccc(C(F)(F)F)cc1)nn2C` (stereo not given), the activity change, negative = inhibition is -1.49% in test [1]; -3.03% in test [2]; 1.32% in test [3]; -0.415% in test [4]; -1.18% in test [5].

Take `COc1ccc(C(=O)NC[C@H]2O[C@@H](CC(=O)Nc3ccccc3)[C@H](O)[C@@H]2O)cc1`: the activity change, negative = inhibition is 3.13% in test [1]; -1.49% in test [2]; 0.451% in test [3]; -1.81% in test [4]; -24.2% in test [5].

With `CCN1C(=O)c2c(C(=O)NCCCc3ccccc3)ncn2CC1(C)C(=O)NC1CCCC1` (stereo not given), the activity change, negative = inhibition in test [1] was -6.66%; in test [2] it was -4.44%; in test [3], 7.49%; in test [4] it was -6.74%; in test [5], 3.62%.

Consider `O=C(CCc1nnc2n(Cc3ccc(Cl)cc3)c(=O)c3ccccc3n12)NC1CC1`, for which the activity change, negative = inhibition was -6.58% in test [1]; 3.86% in test [2]; 2.39% in test [3]; 4.87% in test [4]; -4.17% in test [5].

With `COc1cccc(CN2C(=O)c3cc4ccccc4n3CC2(C)C(=O)NCC2CCCO2)c1` (stereo not given), the activity change, negative = inhibition in test [1] worked out at 4.83%; in test [2], 5.58%; in test [3] it was 10.1%; in test [4] it was 6.75%; in test [5], 0.681%.

On to `O=C(NC1CC1)c1cc2n(n1)CCCN(C(=O)c1ccccc1-c1ccccc1)C2`, for which the activity change, negative = inhibition in test [1] was -2.44%; in test [2] it was -2.67%; in test [3], -3.85%; in test [4], -8.42%; in test [5], -5.62%.

As to `Cc1ccc(S(=O)(=O)c2nnn3c2nc(N2CCC(C(N)=O)CC2)c2cc(Cl)ccc23)cc1C`, the activity change, negative = inhibition was -26.1% in test [1]; -1.88% in test [2]; -16.6% in test [3]; -11.9% in test [4]; -14.7% in test [5].

For the molecule `O=C1CN(Cc2ccc(F)cc2Cl)S(=O)(=O)c2ccccc2N1Cc1ccc(Cl)cc1`, the activity change, negative = inhibition was 2.25% in test [1]; 0% in test [2]; -0.113% in test [3]; -5.2% in test [4]; -2.89% in test [5].

For the molecule `CC1(C(=O)NC2CCCCCCC2)Cn2c(cc3occc32)C(=O)N1Cc1cccs1` (stereo not given), the activity change, negative = inhibition in test [1] is -2.59%; in test [2] it was 0%; in test [3], 1.21%; in test [4] it was -22.7%; in test [5] it was 0.032%.

As for `COc1ccc(C(=O)N[C@@H]2CCC[C@@H]2C(=O)NCc2ccc(C)o2)cn1`, the activity change, negative = inhibition in test [1] is -8.1%; in test [2] it was -7.96%; in test [3] it was -2.63%; in test [4], -12.5%; in test [5], -9.28%.

With `COc1cccc(N2CCN(c3ccc4nnc(CCC(=O)N5CCN(c6ccc(F)cc6)CC5)n4n3)CC2)c1`, the activity change, negative = inhibition is -6.19% in test [1]; 1.25% in test [2]; -12.5% in test [3]; -5.83% in test [4]; 5.39% in test [5].

`COc1ccc(S(=O)(=O)Nc2nc(-c3cccc([N+](=O)[O-])c3)cs2)cc1OC`: the activity change, negative = inhibition in test [1] is -4.12%; in test [2], -0.958%; in test [3], 3.12%; in test [4], -15.8%; in test [5], -0.566%.

For the molecule `CN(Cc1ncc[nH]1)C(=O)C1CCC(=O)N(CCc2ccccn2)C1` (stereo not given), the activity change, negative = inhibition in test [1] was -2.29%; in test [2], -0.158%; in test [3] it was -12.8%; in test [4], -1.99%; in test [5], -7.74%.

Turning to `Cc1cc(-c2nc3cc(F)ccc3s2)ccc1NC(=O)[C@@H](N)CCCCN`, the activity change, negative = inhibition is -15.4% in test [1]; 2.77% in test [2]; -5.55% in test [3]; -13.9% in test [4]; -5.66% in test [5].

Turning to `C/C1=C\CC(C)(C)/C=C/C/C(C(=O)O)=C/CC1`, the activity change, negative = inhibition in test [1] is -3.25%; in test [2] it was -8.02%; in test [3] it was 3.9%; in test [4], -24.6%; in test [5] it was -13%.
